# Source: the supplement of paper PMC11417369
# The other results are listed elsewhere or left out.
# System: PfHDP1 homeodomain (GST-tagged)
# Experiment: gcPBM binding intensity (ln(normalized median fluorescence intensity)); higher = stronger DNA binding
# Method in brief: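 GST-tagged P. falciparum DNA-binding domains, expressed in E. coli (about 25 μg on average), were applied for 1 h to an Agilent 4 × 180k array of primer-extended double-stranded 36-bp intergenic genomic probes plus negative controls. The binding buffer was 1× PBS with 1% milk, 0.2 mg/ml BSA, 0.5% salmon testes DNA and 0.03% Triton X-100. Bound protein was detected with Alexa488 anti-GST antibody and scanned at 488 nm. Binding intensity is the highest Masliner-normalised natural-log median intensity across replicate spots of either probe orientation.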
row,Sequence,gcPBM binding intensity (ln)
1,AAATAGAGAAATACAAGTACATACTAAACCAATCTA [XGTACX_site2780],6.3
2,TATAATGTTGATAATAGTACGTATGAGTTCAAAAAA [XGTACX_site988],6.69
3,CAAATCAAAATTAATTAACACACAATTTTAATATTC [CACACA_site8641],6.06
4,TTCTTTGTAGTATATTAACACACAACTGTTTATAAT [CACACA_site9305],6.67
5,AAAGGATATAATACCATACACACATTTATAAAATAA [CACACA_site1931],6.79
6,GTAGAATCAGTATTCACACATAAATGTATCCAAATG [CACACA_site5395],6.37
7,AATTATATACCATGCACACAAATATTCATACAGGAA [CACACA_site4057],8.36
8,TTTTCATTCTTATATAAATATTATTTTATATAAAAT [GTGCAC_negctrl_site674],6.41
9,ATATATGAAAATATATGTACACAACATATAAAATAG [XGTACX_site5132],6.63
10,AAAAATATATATATATTTCTTCTTTGTTAAAATGTA [CACACA_negctrl_site1459],6.23
11,CAAATTTTTAAAAATGCATGTTCATCCATCCCATAT [TGCATGCA_site467],6.53
12,TTTGTATGATCATAAAGTACTAATTTACATTCAGCA [XGTACX_site8596],6.47
13,ATATATATATATAGAAGTACTCTTATATATTTTATA [XGTACX_site1384],9.17
14,GATATGGAATATATGTGTACATATATATATATTATA [XGTACX_site1724],6.4
15,AAAAAAAAAAAAAATACACACACATAAAAAAAAAAA [CACACA_site8555],6.47
16,ATATACTATTAACCACATATGTGTGTTAATTTATAT [GTGCAC_negctrl_site315],6.41
17,TGCTATTTCATATTCTGTACTAAAACAAGATAATAA [XGTACX_site3852],6.48
18,ATATTAATTATAACTTGTACGTAAAAGGAAAACAAT [XGTACX_site3269],6.96
19,TTGAACCCCACTAACACACACACGCACGCTCAGAAA [CACACA_site2983],6.97
20,ATAATAAACATATATGTACACACATATACATATATA [CACACA_site8924],6.67
21,TTTTTAATATTGTATGCATGTCGTAATAAAAAATTT [TGCATGCA_site259],6.42
22,AACACACACATATATATATATATATATATATATATA [GTGCAC_negctrl_site573],9.67

row,Sequence,gcPBM binding intensity (ln)
1,TATATACTTATATACTGTACTCATCATCTTTTAAAG [XGTACX_site6099],6.53
2,AAAATATATCAAAACACACTCACATATAATACTTAC [CACACA_site6031],6.54
3,TTTTTTTTTTTTTAAACATGCAAAATATATAATTTT [TGCATGCA_site633],6.44
4,TAATATATCTATAATACACACTATTCTAATCACATA [CACACA_site6731],6.49
5,TAGAAACTATGTAATGCACACCAAAATAAAATTATT [CACACA_site8578],9.11
6,TTTTAAAAAATAAAATATTATTGAAGTAAAATATGA [CACACA_negctrl_site758],6.38
7,TTTTGGATACTTCATTTGTCCTGTTTTTTTTTTTTA [CACACA_negctrl_site399],6.11
8,AAAAAAAAAAAAAAATCACACACAATATGAATTTAT [CACACA_site8100],6.4
9,TATTTTATATACAGTGGTACTTTTTTTTTTTTTTTT [XGTACX_site2475],6.51
10,AAAAAAAAAAAAAAAACACACATTTGAAGAAAAAAA [CACACA_site7389],6.75
11,AATTGCTTCAAAATTAAACACACACTAATAAAAAAA [CACACA_site8855],6.85
12,ACATATATATTATAAGCATGCATGAGAAAATTTTTA [TGCATGCA_site1054],7.29
13,TCCTTAAAAAAACCTTAACACACATAAACTATAATT [CACACA_site9001],6.47
14,TTTTTTTTTAAGTTTGCACACATGGAAGACAAAAAT [CACACA_site2505],9.98
15,ATGAATGAATACGTTTTACACACTTGAATATAATTT [CACACA_site8237],6.46
16,GTATATTGTACCATCACACATGTAAAACATAGATGT [CACACA_site5359],6.43
17,TATTTCACAAAAAAAAAAAAAAAAAAGAAGCAAAAA [CACACA_negctrl_site1040],6.13
18,AACATAACAAAAAAAAAAAAAAATATATATATATAT [TGCATGCA_negctrl_site370],9.27
19,TTTTTTACATTCTGCACACAATTTATTTTTTTTTTT [CACACA_site4188],9.35
20,TACACAAAAATAAACACACACACATATAAATAAATA [CACACA_site6599],6.79
21,CCACTAAAGGCATATACACACATTTTTTAAATTGCC [CACACA_site2839],6.73
22,TGTAATACATGTTGTTGTACAATATCTTTAACTTTT [XGTACX_site1219],6.51

row,Sequence,gcPBM binding intensity (ln)
1,TATAACTATGGGTGTACACATTAATCGTTTTTCTTT [CACACA_site5196],6.38
2,TATTGTAAAAAAGCAAAATTTATCACCTCCTTATTT [CACACA_negctrl_site172],6.18
3,TTTTCGCTTTTATAAAATTATATGAAAAAACTAAAA [XGTACX_negctrl_site139],6.16
4,TTATGGAAAAATATAACACACAATGATTTTTTATAA [CACACA_site1831],6.33
5,GAAAAAATAAAATAAAGTACATAACTATAATAAAAA [XGTACX_site4807],6.34
6,ATATATAAACACTCTTGTACATAATAATGTATATAT [XGTACX_site2451],6.45
7,TACTCCTCAATATTATGTACATATAATAGTTATAAA [XGTACX_site8551],6.73
8,CTTACACCCATATATACACACATGTATATTTTATAT [CACACA_site4462],7.24
9,AACCTAAGCATTCTTCAAATTATATATGTAAAATGA [CACACA_negctrl_site261],6.18
10,TCGTATCTATTGAGGGTGCCTCTATAATTGATACAA [GTGCAC_site9636],5.83
11,TAATATAATATATGCACACAAATATGTATTTATGTG [CACACA_site5210],10.1
12,ACATTTTTTTTTTTTTTTCTTTTTCTTTTTCTTTTT [CACACA_negctrl_site1295],6.07
13,AACTTTGAGACATAGTGTACTTACACAATCTTAATA [XGTACX_site3712],6.1
14,CATATTTGATACAAGTGTACTTTATTTAAAAATTCT [XGTACX_site8408],6.09
15,TATATAACTGTCTTCAGTACACAATAAATAAAAATA [XGTACX_site8856],6.72
16,TAATAAAAATAAAATTGTACTAATAACATTTCATTA [XGTACX_site3703],5.85
17,TTTCAAAAAAATAGCTATATTTATATTAATGCACGA [TGCATGCA_negctrl_site63],9.84
18,AAAGGTGTATATAATACACACGTGTGATTAAAATTG [CACACA_site8104],6.8
19,TGTATTAAATTTTGAACACACAAAATAAAACATATA [CACACA_site1672],6.54
20,TGTACATTCGGAGTAAAAAAAAATTTATACAATTAC [CACACA_negctrl_site1451],6.24
21,AACAGATAAAAGGGTACACACATATATACCTGTACA [CACACA_site4285],6.68
22,AGTAAATAATAGATCGCATGTAATAACTAGTAGGAA [TGCATGCA_site948],7

row,Sequence,gcPBM binding intensity (ln)
1,ATTATAAAGACATATACACACATACGTACATACATA [CACACA_site5893],7.02
2,ACAATTGAAGAAATACGTACATAAAGAAAAACTAGT [XGTACX_site820],6.78
3,AGTATAAAATAAATGTGTACACAAGAAAATATGTTA [XGTACX_site8381],8.33
4,AAAATCACAAGACACACACACACAAAAAAAAAAAAA [CACACA_site6791],6.29
5,AAAATATTTTAATGTTGTACATTAATATATTATATA [XGTACX_site2513],6.03
6,ATATATATATGTATGTGTCCACAAGGAGATATATAT [XGTACX_site783],8.61
7,GTAAATATGTTTATTAGTACACATATGAAAATAAAT [XGTACX_site5820],6.42
8,GTTGTTTCTATAAATTGTACTTAAATATAATTATAT [XGTACX_site585],7
9,ATATATTGTATGTGCTCACACATGTTTCGATATTAT [CACACA_site4336],7.39
10,TTTTTTTTTTTTTGGGGTACATTTTAATTAATATTA [XGTACX_site4866],6.51
11,TAAAATATAATTAGCACACATATATAAAATATATAT [CACACA_site4093],7.35
12,GTTCAAAATATGAACACACACATATATATATATATA [CACACA_site2057],9.26
13,ATCTACATATATTATTGTACATTGTTAAAAATTTAT [XGTACX_site7769],6.49
14,TTTCGTAATATGCGTGTGCACAATGAGTCCATATCT,10.9
15,TTTTTTCATAAATAATGTACATATATATATATATAT [XGTACX_site3620],9.21
16,TCTTGTAGATATATTTGTACATATATTTATGGGTAT [XGTACX_site1139],6.82
17,CTAGACTTTTTACAATGTACATATTTATGTATTATT [XGTACX_site1833],6.4
18,AAAAAATATATATTAACACACACACTAATAAAAAAA [CACACA_site8366],7.03
19,AAAATTTTTTACTTTACACACATTTTGTATATTTTG [CACACA_site1730],6.9
20,ATATTATTTATAAGTTGTACGGTATAATATAATATA [XGTACX_site5371],6.48
21,TATTTAATGCAAAAACGTACATAAATAACATTCACA [XGTACX_site5356],8.39
22,TATATATATATTAGTGGTACAAGATTTTTTTCTTTT [XGTACX_site4619],8.45
